{"source": "PubChem BioAssay AID216", "about": "(DTP/NCI, 2004)", "system": "BDF1 mice, P288 leukemia ip, survival T/C", "assay": "NCI In Vivo Anticancer Drug Screen. Data for tumor model P288 Lymphocytic Leukemia (intraperitoneal) in B6D2F1 (BDF1) mice", "conditions": "endpoint: survival time, mean or median, higher = longer survival", "procedure": "The antitumor activity of compounds was measured in mice bearing transplantable tumors. Survival or tumor size were measured and the results are expressed as the measurement made in the treated group (T) divided by the measurement made in the vehicle treated control group (C). The tumor model used in this assay is P288 Lymphocytic Leukemia (intraperitoneal) in B6D2F1 (BDF1) mice", "note": "Inconclusive results and toxic doses are left out. For part of its entries the source gives two or more results. Only these are listed. There may be further records. Results that share an entry are repeated measurements across runs, samples, wells, individuals or studies.", "data": [{"smiles": "N#[N+]c1cnc([O-])[nH]c1=O", "values": [{"measurement": "T/C", "setting": "dose: 5.0 mg/kg/injection, schedule: Q01DX010 (ip), vehicle: saline", "value": "104 % of control and 150 % of control"}]}, {"smiles": "O=C(Nc1ccc(C2=NCCN2)cc1)c1ccc(C(=O)Nc2ccc(C3=NCCN3)cc2)c(Cl)c1", "values": [{"measurement": "T/C", "setting": "dose: 15.0 mg/kg/injection, schedule: Q01DX Z (ip), vehicle: water", "value": "107 % of control and 181 % of control"}]}, {"smiles": "O=c1[nH]cc(F)c(=O)[nH]1", "values": [{"measurement": "T/C", "setting": "dose: 40.0 mg/kg/injection, schedule: Q01DX010 (ip), vehicle: saline", "value": "88 % of control, 95 % of control, 156 % of control"}]}, {"smiles": "O=P1(N(CCCl)CCCl)NCCCO1", "note": "(stereo unspecified)", "values": [{"measurement": "T/C", "setting": "dose: 22.5 mg/kg/injection, schedule: Q01DX010 (ip), vehicle: saline", "value": "108 % of control and 169 % of control"}]}, {"smiles": "O=C(Nc1ccc(C2=NCCN2)cc1)c1ccc(C(=O)Nc2ccc(C3=NCCN3)cc2)cc1", "values": [{"measurement": "T/C", "setting": "dose: 64.0 mg/kg/injection, schedule: Q01DX010 (ip), vehicle: other", "value": "120 % of control and 158 % of control"}]}, {"smiles": "CN(C)c1ccc(Nc2c3ccccc3nc3ccccc23)cc1", "values": [{"measurement": "T/C", "setting": "dose: 80.0 mg/kg/injection, schedule: Q01DX010 (ip), vehicle: saline", "value": "100 % of control and 166 % of control"}]}]}
